Results: article PMC4336329 (PLoS ONE, 2015)
Among all 310,000 compounds or so, about 2,200 (0.71%) showed an effect of 50% or more. The effect is printed as a negative number. Some of the results follow.

What follows are molecules tested against human ether-à-go-go-related gene (hERG) potassium channel (human, UniProt Q12809) (assay: primary screen, population patch clamp on CHO cells stably expressing hERG).
Sequence of human ether-à-go-go-related gene (hERG) potassium channel (Q12809 whole entry, looked up): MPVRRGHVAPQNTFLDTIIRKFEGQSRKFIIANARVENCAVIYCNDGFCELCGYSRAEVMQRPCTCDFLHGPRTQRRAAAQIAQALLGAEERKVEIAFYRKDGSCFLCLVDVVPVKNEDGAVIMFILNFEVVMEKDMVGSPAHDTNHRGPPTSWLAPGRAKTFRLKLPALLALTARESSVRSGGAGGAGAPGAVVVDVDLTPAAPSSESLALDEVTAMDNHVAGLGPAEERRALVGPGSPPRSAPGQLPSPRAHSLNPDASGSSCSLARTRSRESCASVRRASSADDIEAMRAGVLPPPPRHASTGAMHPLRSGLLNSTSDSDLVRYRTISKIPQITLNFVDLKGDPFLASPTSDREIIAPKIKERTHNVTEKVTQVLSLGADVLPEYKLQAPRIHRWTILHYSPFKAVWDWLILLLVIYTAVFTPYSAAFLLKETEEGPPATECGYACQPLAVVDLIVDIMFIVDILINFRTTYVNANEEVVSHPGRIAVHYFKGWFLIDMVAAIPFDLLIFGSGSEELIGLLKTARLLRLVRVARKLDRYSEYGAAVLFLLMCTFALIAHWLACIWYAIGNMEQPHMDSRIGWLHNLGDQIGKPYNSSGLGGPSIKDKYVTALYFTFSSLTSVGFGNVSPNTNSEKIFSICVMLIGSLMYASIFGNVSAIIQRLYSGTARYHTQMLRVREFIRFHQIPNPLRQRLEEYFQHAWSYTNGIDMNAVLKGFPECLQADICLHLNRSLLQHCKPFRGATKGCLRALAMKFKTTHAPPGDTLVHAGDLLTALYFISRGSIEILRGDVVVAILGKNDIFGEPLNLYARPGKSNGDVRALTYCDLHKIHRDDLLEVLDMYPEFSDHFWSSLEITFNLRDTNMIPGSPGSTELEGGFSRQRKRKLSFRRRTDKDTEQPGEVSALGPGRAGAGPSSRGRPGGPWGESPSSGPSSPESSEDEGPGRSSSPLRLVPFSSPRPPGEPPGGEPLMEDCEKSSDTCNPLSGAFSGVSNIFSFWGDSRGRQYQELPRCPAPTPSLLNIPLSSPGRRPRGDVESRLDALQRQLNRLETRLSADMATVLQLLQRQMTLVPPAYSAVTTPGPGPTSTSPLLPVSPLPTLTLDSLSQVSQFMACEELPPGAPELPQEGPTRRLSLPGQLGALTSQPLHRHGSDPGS

SMILES	hERG current change (%, negative = inhibition) at 1uM [%]
c1cncc(-c2ccc3[nH]ccc3c2)c1	7.75
CC(C)COC(=O)c1ccccc1OC(=O)c1ccncc1	6.72
O=C(Nc1ccccc1C(F)(F)F)c1cnccn1	15.4
Cc1cccc(-n2cnc(C(=O)NNC(=S)Nc3ccccc3)c2)n1	16.8
COc1ccc(C2CC(c3ccccc3)=NN2C(=O)COC(=O)c2nc3nccc(C)n3n2)cc1 (centres unmarked)	27.9
Cc1ccc(CN2CCN(C(=O)c3ccncc3)CC2)cc1.O=C(O)C(=O)O	8.52
CCOc1ccccc1/C=C(\C#N)C(=O)Nc1cccc(C(=O)O)c1	-3.93
CCOc1ccc(N(CC(=O)NCc2cccs2)S(=O)(=O)c2c(C)noc2C)cc1	13.1
CC(C)Cn1c(=S)[nH]c2cc(Cl)ccc21	6.32
N/C(=N\OC(=O)CCCOc1ccc(Cl)cc1Cl)c1ccncc1	14.3
N=C1C(c2ccccc2)=C(O)CN1c1ccccc1	4.72
O=C(O)/C=C/C(=O)Nc1ccc(OCc2ccccc2)cc1	11.3
Cc1onc(-c2ccccc2Cl)c1C(=O)Nc1ccc(-c2cn3cccnc3n2)cc1	16
COc1ccc(CNC(=O)CSc2nc(-c3ccccc3)cc(-c3cccs3)c2C#N)cc1	6.45
CCOC(=O)C1(CCCc2ccccc2)CCN(C(=O)CN2C(=O)CSC2=O)CC1	7.4
CCCN1CCN(CCCNC(=O)C2CCCN(c3nnc(-n4cccc4)s3)C2)CC1 (centres unmarked)	4.31
Cc1ccc(C(CNS(=O)(=O)c2ccccc2)N2CCN(C)CC2)cc1 (centres unmarked)	-2.24
CN(C)c1nc2sc3c(c2c(=O)n1C)CC(C)(C)OC3	13.6
O=C(CN1CCN(Cc2ccccc2)CC1)N/N=C/C=C/c1ccco1	-7.18
O=C(Cn1cnc2ccccc21)N/N=C/C(Br)=C/c1ccccc1	10.7
N/C(=N\OC(=O)c1ccc2ccccc2c1)c1ccncc1	-7.21
Cn1c(=O)c2c(nc(CN3CCc4ccccc4C3)n2Cc2ccccc2F)n(C)c1=O	1.59

SMILES	hERG current change (%, negative = inhibition) at 1uM [%]
Cc1nc2cc(C(=O)NCCN3CCOCC3)ccc2n1-c1ccc(F)cc1F	3.34
COC(=O)c1cc2c(C)cc3ccc(C)cn3c-2c1C(=O)OC	12
Cc1[nH]c2ccccc2c1C(c1ccccn1)c1c(C)[nH]c2ccccc12	9.39
O=C(N/N=C/c1ccc(Cl)cc1)c1cc(-c2cccnc2)nc2ccccc12	1.83
C=CCOc1cccc(CNn2nnnc2N)c1	14.6
CC(=O)CC1OC(=O)C(Br)=C1NCc1ccccc1 (centres unmarked)	-5.1
COc1ccccc1C(=O)N/N=C(\C)c1ccc(NC(=O)Cc2ccccc2)cc1	14.8
Cc1ccc(NC(=O)C2CCCO2)c(Br)c1 (centres unmarked)	11.3
COc1ccc(NC(=O)C(=O)NNC(=O)COc2ccc(OC)cc2)cc1	23.2
Cc1ccc2nc3c(cc(C(=O)NCCc4ccccc4)c(=N)n3CCCN3CCOCC3)c(=O)n2c1	-77.5
CSCCC(NC(=O)COc1ccccc1)C(=O)N1CCCCC1 (centres unmarked)	-3.54
COc1ccc(COc2cc(-c3cccc(OC)c3)nc3ccc(NC(=O)c4ccccc4)cc23)cc1	16.8
CNC(=O)NCCN1CCCC1=O	4.47
CC1Cc2ccccc2N1C(=O)CN1CCC(C(N)=O)CC1 (centres unmarked)	0.0723
COC(=O)C1C(c2ccccc2)C(C(=O)O)C1c1ccccc1 (centres unmarked)	22.2
COc1ccccc1C(=O)NCCC(=O)NNC(=O)C1COc2ccccc2O1 (centres unmarked)	4.7
COc1ccc(OC)c(CCNC(=O)Cn2nc(C)c3c(C)n(-c4ccccc4)nc3c2=O)c1	6.87
Brc1ccc(N=C(c2ccccc2)c2ccncc2)cc1	13.5
O=[N+]([O-])c1cc(/C=N/N2CCCCC2)ccc1Cl	7.23
CC(=O)N1CCN(CC(=O)Nc2c(Cl)cccc2Cl)CC1.O=C(O)C(=O)O	15.1
COc1cc(S(=O)(=O)N2CCN(c3ccccn3)CC2)ccc1Br	8.5
C=CCOc1ccc(/C=C(\C#N)C(=O)Nc2ccccn2)cc1	12.5
